21 compounds from the supplement of paper PMC4604168 (melanoma cell lines) can be followed below.

Some of the results follow. Most values come without repeats; read them as rough.

Test systems include WM115; WM1716; WM1745; WM3526; WM3619; WM451Lu.
Holding throughout (assay): cell count relative to DMSO control; melanoma cells; higher = more viable cells
Common to all, as to details: library dose: low library concentration; 72 h
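Note: cell number obtained by counting DAPI-stained nuclei in high-throughput microscope images with image analysis software, screen run in 1,536-well plates.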

`CC[C@]1(O)C[C@H]2CN(CCc3c([nH]c4ccccc34)[C@@](C(=O)OC)(c3cc4c(cc3OC)N(C=O)[C@H]3[C@@](O)(C(=O)OC)[C@H](OC(C)=O)[C@]5(CC)C=CCN6CC[C@]43[C@@H]65)C2)C1` [vincristine] + C[C@@H]1CCN(C(=O)CC#N)C[C@@H]1N(C)c1ncnc2[nH]ccc12 [CP690550] (first compound 0.0001 µM, partner dose 1 µM): the cell count came to 63.9% in the assay with WM115; 51.1% in the assay on WM1716; 87% in the assay with WM1745; 68.6% in the assay on WM3526; 58.1% in the assay with WM3619; 56.9% in the assay on WM451Lu.

As to `N#CC[C@H](C1CCCC1)n1cc(-c2ncnc3[nH]ccc23)cn1` [ruxolitinib] + O=C(Nc1cc(C(F)(F)F)cc(C(F)(F)F)c1)c1cc(Cl)ccc1O [IMD0354] (first compound 1 µM, partner dose 0.016 µM), the cell count with WM115 was found to be 112%; in the assay with WM1716, 111%; with WM1745 it was 99.3%; with WM3526, 99.7%; with WM3619 it was 91.3%; with WM451Lu, 108%.

As to `CC[C@]1(O)C[C@H]2CN(CCc3c([nH]c4ccccc34)[C@@](C(=O)OC)(c3cc4c(cc3OC)N(C=O)[C@H]3[C@@](O)(C(=O)OC)[C@H](OC(C)=O)[C@]5(CC)C=CCN6CC[C@]43[C@@H]65)C2)C1` [vincristine] + CC(C)(C)c1cnc(CSc2cnc(NC(=O)C3CCNCC3)s2)o1 [SNS-032] (first compound 0.0001 µM, partner dose 0.01 µM), the cell count with WM115 is 57.1%; with WM1716, 38.6%; in the assay with WM1745 it was 82.1%; in the assay on WM3526, 92.1%; in the assay on WM3619, 81.4%; with WM451Lu it was 62%.

As for `CC[C@]1(O)C[C@H]2CN(CCc3c([nH]c4ccccc34)[C@@](C(=O)OC)(c3cc4c(cc3OC)N(C=O)[C@H]3[C@@](O)(C(=O)OC)[C@H](OC(C)=O)[C@]5(CC)C=CCN6CC[C@]43[C@@H]65)C2)C1` [vincristine] + COc1cc([C@@H]2c3cc4c(cc3[C@@H](O[C@@H]3O[C@@H]5CO[C@@H](C)O[C@H]5[C@H](O)[C@H]3O)[C@H]3COC(=O)[C@H]23)OCO4)cc(OC)c1O [etoposide] (first compound 0.0001 µM, partner dose 0.02 µM), the cell count worked out at 59.2% in the assay on WM115; 45.6% in the assay with WM1716; 78% in the assay with WM1745; 72.8% in the assay with WM3526; 65% in the assay with WM3619; 50.6% in the assay on WM451Lu.

`Cc1cc(Nc2cc(N3CCN(C)CC3)nc(Sc3ccc(NC(=O)C4CC4)cc3)n2)n[nH]1` [Tozasertib] + CCN(CC)CCNC(=O)c1c(C)[nH]c(/C=C2\C(=O)Nc3ccc(F)cc32)c1C [sunitinib] (first compound 0.006 µM, partner dose 0.4 µM): the cell count in the assay on WM115 worked out at 104%; in the assay on WM1716 it was 105%; in the assay with WM1745, 73.4%; in the assay with WM3526, 96.4%; in the assay on WM3619 it was 113%; with WM451Lu, 96.8%.

Take `N#CC[C@H](C1CCCC1)n1cc(-c2ncnc3[nH]ccc23)cn1` [ruxolitinib] + N#Cc1c(O)c2c(-c3ccc(-c4ccccc4O)cc3)csc2[nH]c1=O [A769662] (first compound 1 µM, partner dose 2 µM): the cell count is 111% with WM115; 96.1% in the assay on WM1716; 90.1% in the assay with WM1745; 106% with WM3526; 86.5% in the assay with WM3619; 96.6% with WM451Lu.

With `N#CC[C@H](C1CCCC1)n1cc(-c2ncnc3[nH]ccc23)cn1` [ruxolitinib] + Cc1ccc(Nc2nccc(N(C)c3ccc4c(C)n(C)nc4c3)n2)cc1S(N)(=O)=O [Pazopanib] (first compound 1 µM, partner dose 0.4 µM), the cell count in the assay with WM115 was found to be 113%; in the assay on WM1716, 88.5%; in the assay with WM1745, 74.4%; in the assay on WM3526, 103%; in the assay on WM3619, 116%; in the assay on WM451Lu, 93.4%.

With `CC[C@]1(O)C[C@H]2CN(CCc3c([nH]c4ccccc34)[C@@](C(=O)OC)(c3cc4c(cc3OC)N(C=O)[C@H]3[C@@](O)(C(=O)OC)[C@H](OC(C)=O)[C@]5(CC)C=CCN6CC[C@]43[C@@H]65)C2)C1` [vincristine] + O=c1[nH]nc(Sc2ncc([N+](=O)[O-])s2)n1-c1ccc2c(c1)OCCO2 [BI78D3] (first compound 0.0001 µM, partner dose 0.2 µM), the cell count with WM115 stood at 67.1%; with WM1716, 47.5%; with WM1745, 97.1%; in the assay on WM3526 it was 86.4%; with WM3619 it was 57.7%; in the assay with WM451Lu, 52.9%.

Turning to `CC[C@]1(O)C[C@H]2CN(CCc3c([nH]c4ccccc34)[C@@](C(=O)OC)(c3cc4c(cc3OC)N(C=O)[C@H]3[C@@](O)(C(=O)OC)[C@H](OC(C)=O)[C@]5(CC)C=CCN6CC[C@]43[C@@H]65)C2)C1` [vincristine] + Cc1cc(N2CCOCC2)cc2[nH]c(-c3c(NC[C@@H](O)c4cccc(Cl)c4)cc[nH]c3=O)nc12 [BMS536924] (first compound 0.0001 µM, partner dose 0.2 µM), the cell count in the assay with WM115 came out at 50.5%; in the assay with WM1716 it was 44.6%; in the assay with WM1745 it was 73.5%; in the assay on WM3526, 59%; in the assay with WM3619, 53.2%; in the assay on WM451Lu, 34.3%.

Turning to `CC[C@]1(O)C[C@H]2CN(CCc3c([nH]c4ccccc34)[C@@](C(=O)OC)(c3cc4c(cc3OC)N(C=O)[C@H]3[C@@](O)(C(=O)OC)[C@H](OC(C)=O)[C@]5(CC)C=CCN6CC[C@]43[C@@H]65)C2)C1` [vincristine] + Nc1ccn([C@@H]2O[C@H](CO)[C@@H](O)C2(F)F)c(=O)n1 [gemcitabine] (first compound 0.0001 µM, partner dose 0.0004 µM), the cell count in the assay with WM115 was determined as 58.3%; with WM1716 it was 48.8%; with WM1745 it was 82.3%; in the assay with WM3526, 71.5%; with WM3619, 62%; with WM451Lu it was 58.4%.

On to `Cc1cc(Nc2cc(N3CCN(C)CC3)nc(Sc3ccc(NC(=O)C4CC4)cc3)n2)n[nH]1` [Tozasertib] + Cc1ccc(Nc2nccc(N(C)c3ccc4c(C)n(C)nc4c3)n2)cc1S(N)(=O)=O [Pazopanib] (first compound 0.006 µM, partner dose 0.4 µM), for which the cell count with WM115 came to 99%; with WM1716, 85%; in the assay on WM1745, 104%; with WM3526 it was 92.3%; in the assay with WM3619 it was 88.7%; in the assay on WM451Lu it was 95.5%.

On to `Cc1cc(Nc2cc(N3CCN(C)CC3)nc(Sc3ccc(NC(=O)C4CC4)cc3)n2)n[nH]1` [Tozasertib] + Cn1cnc2c(F)c(Nc3ccc(Br)cc3Cl)c(C(=O)NOCCO)cc21 [selumetinib] (first compound 0.006 µM, partner dose 0.015 µM), for which the cell count in the assay on WM115 amounted to 97%; in the assay with WM1716 it was 96%; in the assay with WM1745, 89.7%; in the assay on WM3526, 80.9%; with WM3619, 83.5%; in the assay on WM451Lu, 99%.

Consider `Cc1cc(Nc2cc(N3CCN(C)CC3)nc(Sc3ccc(NC(=O)C4CC4)cc3)n2)n[nH]1` [Tozasertib] + COc1ccc(Cl)c(Nc2nc3ccccc3nc2NS(=O)(=O)c2cccc(NC(=O)C(C)(C)N)c2)c1 [XL147] (first compound 0.006 µM, partner dose 0.8 µM), for which the cell count in the assay with WM115 came out at 93.3%; in the assay on WM1716 it was 90.1%; in the assay on WM1745 it was 85.1%; with WM3526, 84.5%; with WM3619, 95.4%; in the assay on WM451Lu, 81.9%.

As to `Cc1cc(Nc2cc(N3CCN(C)CC3)nc(Sc3ccc(NC(=O)C4CC4)cc3)n2)n[nH]1` [Tozasertib] + C=CCNC1=C2C[C@@H](C)C[C@H](OC)[C@H](O)[C@@H](C)/C=C(\C)[C@H](OC(N)=O)[C@@H](OC)/C=C\C=C(/C)C(=O)NC(=CC1=O)C2=O [Tanespimycin] (first compound 0.006 µM, partner dose 0.002 µM), the cell count in the assay with WM115 turned out to be 91.2%; with WM1716, 86.7%; with WM1745 it was 92.6%; in the assay on WM3526, 86%; with WM3619, 72.7%; with WM451Lu it was 89.1%.

For the compound `Cc1cc(Nc2cc(N3CCN(C)CC3)nc(Sc3ccc(NC(=O)C4CC4)cc3)n2)n[nH]1` [Tozasertib] + Cn1sc(=O)n(Cc2ccccc2)c1=O [TDZD-8] (first compound 0.006 µM, partner dose 0.4 µM), the cell count in the assay on WM115 worked out at 97.5%; in the assay on WM1716, 103%; in the assay with WM1745, 91.4%; in the assay with WM3526 it was 107%; in the assay with WM3619 it was 106%; with WM451Lu, 107%.

As to `N#CC[C@H](C1CCCC1)n1cc(-c2ncnc3[nH]ccc23)cn1` [ruxolitinib] + CCCCCCCCCCCCCCCCCCOP(=O)([O-])OC1CC[N+](C)(C)CC1 [Perifosine] (first compound 1 µM, partner dose 0.4 µM), the cell count in the assay on WM115 came to 118%; in the assay with WM1716, 88.1%; in the assay on WM1745, 113%; in the assay on WM3526, 118%; in the assay on WM3619, 96.4%; in the assay on WM451Lu, 91.9%.

Regarding `CC[C@]1(O)C[C@H]2CN(CCc3c([nH]c4ccccc34)[C@@](C(=O)OC)(c3cc4c(cc3OC)N(C=O)[C@H]3[C@@](O)(C(=O)OC)[C@H](OC(C)=O)[C@]5(CC)C=CCN6CC[C@]43[C@@H]65)C2)C1` [vincristine] + Cn1c(Nc2ccc(C(F)(F)F)cc2)nc2cc(Oc3ccnc(-c4ncc(C(F)(F)F)[nH]4)c3)ccc21 [CHIR265] (first compound 0.0001 µM, partner dose 0.08 µM), the cell count is 33% with WM115; 49.3% in the assay with WM1716; 59.6% in the assay on WM1745; 38.9% in the assay on WM3526; 62.8% with WM3619; 67.6% in the assay with WM451Lu.

For `N#CC[C@H](C1CCCC1)n1cc(-c2ncnc3[nH]ccc23)cn1` [ruxolitinib] + Cc1nc(Nc2ncc(C(=O)Nc3c(C)cccc3Cl)s2)cc(N2CCN(CCO)CC2)n1 [dasatanib] (first compound 1 µM, partner dose 0.004 µM), the cell count was found to be 86.1% in the assay on WM115; 89.5% with WM1716; 65% in the assay with WM1745; 93.6% with WM3526; 97.1% in the assay on WM3619; 87.4% with WM451Lu.

In the case of `N#CC[C@H](C1CCCC1)n1cc(-c2ncnc3[nH]ccc23)cn1` [ruxolitinib] + CC(C)(C)c1cnc(CSc2cnc(NC(=O)C3CCNCC3)s2)o1 [SNS-032] (first compound 1 µM, partner dose 0.01 µM), the cell count in the assay with WM115 amounted to 108%; with WM1716, 99.9%; in the assay with WM1745, 80.2%; in the assay on WM3526 it was 137%; in the assay with WM3619, 125%; with WM451Lu, 103%.

Turning to `CC[C@]1(O)C[C@H]2CN(CCc3c([nH]c4ccccc34)[C@@](C(=O)OC)(c3cc4c(cc3OC)N(C=O)[C@H]3[C@@](O)(C(=O)OC)[C@H](OC(C)=O)[C@]5(CC)C=CCN6CC[C@]43[C@@H]65)C2)C1` [vincristine] + CC1(C)CCC(c2ccc(Cl)cc2)=C(CN2CCN(c3ccc(C(=O)NS(=O)(=O)c4ccc(N[C@H](CCN5CCOCC5)CSc5ccccc5)c(S(=O)(=O)C(F)(F)F)c4)cc3)CC2)C1 [ABT263] (first compound 0.0001 µM, partner dose 0.4 µM), the cell count in the assay on WM115 came out at 81.7%; with WM1716, 89%; with WM1745 it was 35.8%; in the assay with WM3526, 113%; in the assay with WM3619, 82.1%; with WM451Lu, 65%.

Regarding `CC[C@]1(O)C[C@H]2CN(CCc3c([nH]c4ccccc34)[C@@](C(=O)OC)(c3cc4c(cc3OC)N(C=O)[C@H]3[C@@](O)(C(=O)OC)[C@H](OC(C)=O)[C@]5(CC)C=CCN6CC[C@]43[C@@H]65)C2)C1` [vincristine] + CC(=O)O[C@@]12CO[C@@H]1C[C@H](O)[C@@]1(C)C(=O)[C@H](O)C3=C(C)[C@@H](OC(=O)[C@H](O)[C@@H](NC(=O)OC(C)(C)C)c4ccccc4)C[C@@](O)([C@@H](OC(=O)c4ccccc4)[C@H]21)C3(C)C [Docetaxel] (first compound 0.0001 µM, partner dose 0.0001 µM), the cell count stood at 47% with WM115; 34.6% in the assay with WM1716; 63.8% in the assay on WM1745; 53.7% in the assay on WM3526; 54% in the assay with WM3619; 57.5% with WM451Lu.
